Results reported in the RNAGym collection of RNA variant scans (doi:10.1073/pnas.2313332121).
Variants at the floor of the assay are shown more often than the library holds them.

B1: TPR 5TU (parent)
chain: GGAUCUUCUCGAUCUAACAAAAAAGACAAAUCUGCCACAAAGCUUGAGAGCAUCUUCGGAUGCAGAGGCGGCAGCCUUCGGUGGCGCGAUAGCGCCAACGUUCUCAACUAUGACACGCAAAACGCGUGCUCCGUUGAAUGGAGUUUAUCAUG

Variants of: B1
Experiment: polymerase ribozyme fitness, log enrichment relative to wild type (log ratio); higher = more active; in vitro selection for triplet polymerase activity
How it was run: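 Fitness is a logarithmic measure of how a genotype enriched relative to the wild type, with replicate averages weighted by inverse variance. The logarithm uses base 2, and enrichment came from Illumina sequencing of input and output libraries. Those libraries were PCR-built, transcribed mutants of each subunit of a heterodimeric triplet polymerase ribozyme, passed through one triplicate in vitro selection round that included frozen incubation at −7 °C, gel excision of extended constructs and streptavidin-bead capture. Genotypes were kept only if they had ≥10 input reads and ≥1 read per output.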

Polymerase ribozyme fitness (log ratio), -3.43:
U31A C95G U130A

Polymerase ribozyme fitness (log ratio), -3.73:
C32U U61G

Polymerase ribozyme fitness (log ratio), -3.79:
C32G C79U C96G A142C

Polymerase ribozyme fitness (log ratio), -4.15:
U33G C95G C116A

Polymerase ribozyme fitness (log ratio), -0.219:
U31A U55A A97U U145G

Polymerase ribozyme fitness (log ratio), -3.83:
U31A G50C C85U

Polymerase ribozyme fitness (log ratio), -4.16:
C32G U45C

Polymerase ribozyme fitness (log ratio), -3.89:
C32U A40G C105A

Polymerase ribozyme fitness (log ratio), -1.97:
C32U C85U

Polymerase ribozyme fitness (log ratio), -4.13:
C32U A49C

Polymerase ribozyme fitness (log ratio), -3.87:
U33G G58U A91C G143U

Polymerase ribozyme fitness (log ratio), -3.97:
U33C G68A

Polymerase ribozyme fitness (log ratio), -4.06:
C32A C85U

Polymerase ribozyme fitness (log ratio), -4:
U33C G59A A60U U145G

Polymerase ribozyme fitness (log ratio), -0.224:
U31C C95G

Polymerase ribozyme fitness (log ratio), ≤ -4.2:
U33G C93U C116G
U33G A39U G50A A52C C95G A97G C125U A142C G143U
C32G C51U G94U
U31A A41U G83C U111G G136C
C32A U61A C75U G94A U102G A107G A147C
U31C A47C C79U A91U
C32G A41U A47C A49C A113G C125U
U31G A41G U44A C54U C93U
C32G G70C
C32A G59C G68A A73G G83C U130C A138G
U31A C32U C36A U53A G58A U109C U134A
A30G C43G U44A A110G U146C C149U
A30U A41G C87U C125A A147U
A30G G46C G80C C93U C131A G143A
C32G U55A G58A G68A C85U G88C C93A A106G C116A U135A
A30U A137C A150C
U33C G50C U55A G58C C85A C116U
U33G G42A G58C A91G G100A
U31G A37C C38A G70C U78A C79U C132U
A30U G83U G88A U109C C125U G133C
C32A U44A A60C C79G G92U
U33G G84A C85U A106G A107G
A30G G74C C114U
U33A A49C C51U A110G C123U
U33C C43U G126U
U33A U53A U148C
C32U A52U U90C G128C
A30U A52G U56G G80C G84U A98C A110U
U31G G50U C76U C85A A119U
A30G G74U C95A U148G
U31A U45C G71A C87U A97G A142G
C32A A41C C51U G58A C69U C93U C108U
U33G G59U A73U U82G C85A C103A A107C
C32G G42A G65C C95U C105A A113U A138U U144C
U31A G48C A60G C72U C95G A121C U148A
A30U A41C C87G G133U A138C
A30U G88C
A30U G46U G88A A89U G94U C95A U104G U135C U144A
C32U G48C A64U
U33A A40U C95A G124U U134C U139C G143A
C32G A91C C95G C116U
C32A A47C G81C C95G G112A G140C
C32G A49U G65U C93U C99G A110U A147U
A30U C51A C76U G88U C96G A115G U144C
U31G C79U C87G A120C G133A
C32U G71C G74U
C32A A73G C76A C85U C95U G143A
U33C C57G G88A G92A U146A
U33G C35G U53A C85A C87U
C32A U45A G140U
C32U A41C A49C A52G U56G C79A C132A
U33A C38U C87A
C32G A37C C85G
A30U C79U
C32G C54U A73C C79U C87G U145G
A30U G59U C93U
C32G G88A A110G A122U
C32A A37U U102A A137C A138U G141C
C32G C51A C87A G152A
U33C C54A G83C C108G U146A C149A
C32A A39U C125U U144G
U33A C43G A60G G70C G83C G124C G143A
U33G C57A G84A A89U C108A A110C U146C
C32A A49U U61A C69G A120U U145C C149G
A30U U56A G94A G112C A115U C132U
U31C C79G U139C U144G
A30G U77A C87U
C32U C116G U135A G140C
U31C A66G G86C C108G U127A A138G
U33G C54A G86A C87G A119U A122U G143C A147C
U31G G50A G58A U61A C87A U127G
U31A C51A A73G C123A
A30G C43G G83A
U33A C76A C95U C105A A137U
A30U C38U C95G G100A C116U
U31C G70U C85U A91G
U33G G62C C125U
U31G A41U C43A C72U G92U A137G U145G
U31A G48U G50C A64U A110U A120G
A30U A41C G70C C93G
A30U G42C C76G
U33A A49C A91G G92U C125U
C32A A37U U56A G74A C76G G86A A115G G124A U151G
A30U C75G U101A U111G A119U U139A
A30U C32G A73U C93G C99G A137U A147U
U31A G80C U90C C103G G136U A150C
U33A A39G U90A U130A
U33A G50C U61A A73C C93A
C32U U55G G67C G84A A113U
A30G G92A U145G
U31A C57U C96A U111C A115U G124U
C32U C43U C93U C95G C99G C114G C118G C149G A150U
U31C A37C U56A G86A C108U
A30U C43G
C32A A37C C79A C93U
U31A U61C C63U A66G G70A G83U
U33G G48A C57G G62U C76G G84A A89G G141A
U33G C35G A60G A107G
C32A A52U C63A A64U G74U A137C
U33G C54A G74A
C32A U55A C76U A89G G92U A119G
C32A G46C C54U U56A G84U U145A
U31A A37C A47U C116U U127G U144G U151G
U31C A91C U148C
A30U C87G C116A G141A
A30U C38A C75G C85U G141C
C32A G50A A137G
U31C G68C C95A A119U C129A A138G C149A
U31A G34A G100U C149G
C32G G59C C75U C93U G100U C125G
U31G C57U G83C C87A
A30G C51A U55A U56A C75U U82A U144C
C32G A47G U56A C85U U109A
C32G A37U A113C C114U A137U U146C
U33G C38U C51A C54G C57A C79G C87U G128A
A30U G50A C57A C75U C85A G140U G143A
A30U G62U U90G C95A A107C C118A A142G
A30U U44G A52C C85G A107G G126C U134A A147G
U31A U90G C95U G141U
C32U A39U U55G G88A A107U G124U A142C U148G
C32A A39U G58A C72U G80U G83A
U33A C76G G84C C85G C87G A89G G136C U145A
U31A G68A A73G C96U G152C
U31G G86U G88A A107G U111A G152A
A30U C43U U44G G46U A64C C75U C87U C132U
C32A U61A U78A G86U
U33A C85U U146G A147U A150G
U33A C85U A106G G126A A138C
C32G A49G G50C G67A G88A A106G G126U U130A G133U
U31A G67C U127C
A30G G74C A97C C129U C149G
A30U C35U G68U A120U
U31A A39G G67C C72G C96U A107U A113G A115C U148A
U31A A40G G67U
C32G A49C A52U A138U
C32G A49C A142U
U31G C54U C95U C125A U139C
A30U U77A C87U A89U G94A A137C A147U
U33G A52U C75U C85U U144A
U31G G42C G50C C57A C79G G80C G136C
U33C G42A A91U C93G A142C
U31C C43U G92C C108U G143U

Polymerase ribozyme fitness (log ratio), -0.327:
U31A U53A

Polymerase ribozyme fitness (log ratio), -0.958:
U31C C99G C103U

Polymerase ribozyme fitness (log ratio), -3.88:
C32U C54G G68U C75A
C32G U146A

Polymerase ribozyme fitness (log ratio), -2.9:
A30U A106G

Polymerase ribozyme fitness (log ratio), -4.19:
C32U G83U G126A

Polymerase ribozyme fitness (log ratio), -4.2:
U31C C87A

Polymerase ribozyme fitness (log ratio), 0.463:
U31G C95U

Polymerase ribozyme fitness (log ratio), -1.54:
U31G U55A A142U

Polymerase ribozyme fitness (log ratio), -0.253:
U31A U55A G83A G117A
